Inconclusive means that the source gave no clear call. Such entries were picked first, then a sample of the others. For some assays here: Potencies beside an inconclusive call are fits to weak or partial responses and may not hold up. Calls of active or inactive are those of the source. Calls follow the shape of the dose curve; as a rule, active = well fitted curve in the direction sought with a large enough effect; inconclusive = small, poorly fitted or top-dose-only effect, or another doubt; inactive = no such curve, though single readings can be large; an effect the other way counts as inactive or inconclusive.
What was measured:
[1] = P-glycoprotein substrates identified in KB-8-5-11 adenocarcinoma cell line, qHTS therapeutic library screen (AID 1346987); also: potency is read from the fitted curve at half-maximal effect; nearly all actives have a fitted effect of over 65% in size
How it was run: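 Luminescence from CellTiter-Glo, read 5 min after addition, quantified survival of KB-8-5-11 (P-gp-overexpressing) cells exposed to compounds for 72 h. AC50 was derived from concentration-response curves.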

[2] = system: Zika virus NS2B-NS3 protease (linked construct); experiment: Confirmatory screen NINDS AMC qHTS for Zika virus inhibitors (AID 1347152); also: potency is read from the fitted curve at half-maximal effect; nearly all actives have a fitted effect of over 70% in size
How it was run: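 In this dose-response qHTS, AMC release from 10 microM Bz-Nle-KRR-AMC by 1 nM linked protease is measured over 15 minutes (about 20% conversion) at pH 8.0. Percent inhibition is fitted to a 4-parameter Hill curve.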

[3] = system: Zika virus NS2B-NS3 protease (unlinked complex); experiment: Confirmatory screen GU AMC qHTS for Zika virus inhibitors (AID 1347153);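 also: enzyme at 25 nM with substrate at 10 µM below its Km of 18.3 µM; potency is read from the fitted curve at half-maximal effect; nearly all actives have a fitted effect of over 70% in size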
How it was run: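 Unlinked NS2B-NS3 complex (25 nM) in 10 mM Tris-HCl pH 8.0, 0.01% Tween 20 preincubated 15 min with compound, then 10 microM Bz-Nle-KRR-AMC (Km 18.3 µM). Fluorescence change over 15 min, normalized, Hill-fitted.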

[4] = ZIKV-mCherry secondary qHTS for Zika virus inhibitors (AID 1347158); also: potency is read from the fitted curve at half-maximal effect
How it was run: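 Compounds were tested in Vero monkey kidney cells infected with recombinant mCherry-expressing Zika virus at MOI 1 for 48-72 h at 37 °C. Fixed cells were nuclear-stained and imaged, and infection rate was taken as the fraction of mCherry-positive cells.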

[5] = system: Zika virus NS2B-NS3 protease (linked construct); experiment: Primary screen NINDS Rhodamine qHTS for Zika virus inhibitors (AID 1347160); settings: activity change, negative = inhibition: at 57.1 µM (top of the series) unless noted; also: potency is read from the fitted curve at half-maximal effect; nearly all actives have a fitted effect of over 55% in size
How it was run: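 Each compound, titrated, sat 15 min with 25 nM linked protease before 1.5 microM Rhodamine110 substrate went in. Fluorescence gain over the next 15 min, in pH 8.0 Tris with Tween 20, gave Hill-fitted curves.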

[6] = Vero cells viability qHTS for Zika virus inhibitors (AID 1347167); also: potency is read from the fitted curve at half-maximal effect
How it was run: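 To flag cytotoxic protease inhibitors, viability is measured by ATP-dependent luminescence (CellTiter Glo) after cells attached overnight receive compound for 24 to 48 hours in DMEM with 4% FBS.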

[7] = Primary fluorescence-based thiol-reactive (MSTI) qHTS assay for identification of artifact compounds. (AID 1845221);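 also: thiol-reactive compounds lower the probe fluorescence signal; nearly all actives have a fitted effect of over 65% in size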
How it was run: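 One-hour, room-temperature, dark incubation of compound with 4 uM MSTI in PBS (pH 7.4, 2% DMSO) precedes a fluorescence read at 525 nm excitation, 598 nm emission; Hill-equation fitting yields concentration-response values.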

[8] = Primary redox qHTS assay for identification of artifact compounds. (AID 1845223); settings: Amplex Red/HRP redox cycling with DTT, fluorescence; series mostly up to 53.8 µM; also: potency is read from the fitted curve at half-maximal effect
How it was run: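 Redox-cycling detection via DTT (250 uM final) oxidation coupled to Amplex Red (25 uM)/HRP (250 mU/mL) in HBSS. 15 min preincubation plus 30 min after DTT, room temperature. Ex/Em 525/598 nm; 4-parameter Hill fit against DMSO and 10 uM DA3003.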

HaCat = experiment: Cytotoxic Profiling of Annotated Libraries Using Quantitative High-Throughput Screening (AID 1296008); settings: Five cell lines viability, CellTiter-Glo ATP luminescence, 48-72 h; max response: active compounds read low; also: potency is read from the fitted curve at half-maximal effect; nearly all actives have a fitted effect of over 60% in size
How it was run: (§1)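 Compounds were pin-transferred onto cells and incubated 48 or 72 hr at 37 degree Celsius, 95% humidity. CellTiter-Glo was added, plates sat 10 min at room temperature, then ATP-coupled luminescence was imaged as the viability read-out.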

KB-3-1 = experiment: as above; settings: Five cell lines viability, CellTiter-Glo ATP luminescence, 48-72 h; max response: active compounds read low
How it was run: as §1

NIH3T3 = experiment: as above; settings: Five cell lines viability, CellTiter-Glo ATP luminescence, 48-72 h; max response: active compounds read low
How it was run: as §1

CAOV3 = experiment: Primary qHTS to identify gynecologic anti-cancer compounds using libraries of approved drugs and bioactive compounds (AID 1345084); settings: Gynecologic cancer cell panel viability, ATPlite luminescence, 48 h; activity change, negative = cytotoxicity: at 57.5 µM (top of the series); also: nearly all actives have a fitted effect of over 55% in size; also: potency is read from the fitted curve at half-maximal effect
How it was run: (§2)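 In this quantitative HTS, cell killing is estimated from loss of ATP-dependent luciferase light. Cells see five compound concentrations over a 48 h exposure.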

CASKI = experiment: as above; settings: Gynecologic cancer cell panel viability, ATPlite luminescence, 48 h; series mostly up to 57.5 µM
How it was run: as §2

Es-2 = experiment: as above; settings: Gynecologic cancer cell panel viability, ATPlite luminescence, 48 h; series mostly up to 57.5 µM
How it was run: as §2

HeLa = experiment: as above; settings: Gynecologic cancer cell panel viability, ATPlite luminescence, 48 h; activity change, negative = cytotoxicity: at 57.5 µM (top of the series)
How it was run: as §2

JEG-3 = experiment: as above; settings: Gynecologic cancer cell panel viability, ATPlite luminescence, 48 h; series mostly up to 57.5 µM
How it was run: as §2

OV90 = experiment: as above; settings: Gynecologic cancer cell panel viability, ATPlite luminescence, 48 h; series mostly up to 57.5 µM
How it was run: as §2

PA-1 = experiment: as above; settings: Gynecologic cancer cell panel viability, ATPlite luminescence, 48 h; series mostly up to 57.5 µM
How it was run: as §2

SKOV3 = experiment: as above; settings: Gynecologic cancer cell panel viability, ATPlite luminescence, 48 h; series mostly up to 57.5 µM
How it was run: as §2

Tov112D = experiment: as above; settings: Gynecologic cancer cell panel viability, ATPlite luminescence, 48 h; series mostly up to 57.5 µM
How it was run: as §2
Tags tell the direction and shape of the fitted curve.

For `CC(=O)N1c2ccc(-c3ccc(C(=O)O)cc3)cc2C(Nc2ccc(Cl)cc2)CC1C` (stereo not given), the Potency [1] was inconclusive: 651 nM [inhibitor, full curve], the Potency [2] was inconclusive: 49400 nM [inhibitor, single point] and the Potency [3] was inconclusive: 55500 nM [inhibitor, single point]. For the same compound, the Potency [4] was inconclusive: 1120 nM [inhibitor, full curve, poor fit], the Potency [5] was active: 8910 nM and the Potency [6] was inconclusive: 5870 nM [cytotoxic, partial curve, poor fit]. The Potency [7] was “inactive”, the Potency [8] was inconclusive: 23800 nM [activator, partial curve, poor fit] and the Potency (HaCat) was inconclusive: 731 nM [inhibitor, partial curve]. The Potency (KB-3-1) was inconclusive: 2910 nM [inhibitor, partial curve], the Potency (NIH3T3) was inconclusive: 580 nM [inhibitor, full curve] and the Potency (CAOV3) was “inactive”. For the same compound, the Potency (CASKI) was inconclusive: 1120 nM [cytotoxic, partial curve, poor fit], the Potency (Es-2) was inconclusive: 1780 nM [cytotoxic, partial curve, poor fit] and the Potency (HeLa) was inconclusive: 355 nM [cytotoxic, full curve, poor fit]. The Potency (JEG-3) was inconclusive: 28200 nM [cytotoxic, partial curve, poor fit], the Potency (OV90) was inconclusive: 3160 nM [cytotoxic, full curve] and the Potency (PA-1) was inconclusive: 1000 nM [cytotoxic, full curve, poor fit]. The Potency (SKOV3) was active: 3980 nM and the Potency (Tov112D) was inconclusive: 2820 nM [cytotoxic, partial curve, poor fit].
